# The supplement of paper PMC3334620
# The full ranking holds about 33,000 sequences; the median of “E-score (-0.5 to 0.5)” is about -0.011, and the highest 2% start at about 0.28. Some of the results follow.
# Molecular target: T1, Gcr1 (UniProt P07261)
# T1 sequence: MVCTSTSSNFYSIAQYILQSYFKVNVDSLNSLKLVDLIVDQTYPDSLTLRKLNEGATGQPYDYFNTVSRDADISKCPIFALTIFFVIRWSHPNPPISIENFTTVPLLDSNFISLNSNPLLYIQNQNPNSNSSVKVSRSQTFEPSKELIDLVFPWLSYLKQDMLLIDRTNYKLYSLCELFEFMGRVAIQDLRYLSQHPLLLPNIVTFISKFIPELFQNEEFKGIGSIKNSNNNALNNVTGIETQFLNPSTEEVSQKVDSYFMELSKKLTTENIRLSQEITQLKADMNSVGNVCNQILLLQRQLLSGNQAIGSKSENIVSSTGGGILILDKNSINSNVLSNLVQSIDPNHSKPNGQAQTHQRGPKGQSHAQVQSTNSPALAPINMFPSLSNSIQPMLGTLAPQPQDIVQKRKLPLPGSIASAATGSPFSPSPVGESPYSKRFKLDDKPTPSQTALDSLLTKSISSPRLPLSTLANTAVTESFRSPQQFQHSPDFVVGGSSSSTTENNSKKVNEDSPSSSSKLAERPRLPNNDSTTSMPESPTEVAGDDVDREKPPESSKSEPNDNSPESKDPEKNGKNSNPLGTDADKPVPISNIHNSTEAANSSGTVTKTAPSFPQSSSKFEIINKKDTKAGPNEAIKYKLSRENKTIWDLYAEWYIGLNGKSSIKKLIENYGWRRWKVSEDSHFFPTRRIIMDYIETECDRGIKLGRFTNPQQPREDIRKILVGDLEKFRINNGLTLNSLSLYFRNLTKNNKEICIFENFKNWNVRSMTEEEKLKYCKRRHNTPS
# Test: PBM E-score (8-mer binding enrichment) (E-score (-0.5 to 0.5)); higher = stronger / more preferred TF binding; most listed sequences are background and not binding sites
# Conditions: protein concentration: 100 nM; construct: GST-full length
# Procedure, shortened: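 Each ungapped eight-base word and its reverse complement, pooled, received an E-score from the Universal PBM Analysis Suite. Underlying scans, normalised with masliner, recorded fluorescent anti-GST bound to GST-tagged yeast transcription factors. These were applied at about 100-200 nM to universal all-10-mer Agilent arrays double-stranded by primer extension.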
row,Sequence,PBM E-score
1,ACACAGGT,0.0552
2,ATAAGTAG,0.126
3,AGTGGGAC,-0.0289
4,AGGTGGCC,-0.0324
5,CACAAGGG,-0.0799
6,AGCCGCGC,0.0175
7,AGAGCGTG,-0.106
8,CCATGACC,-0.165
9,CATGTATC,-0.022
10,TGCTTAAA,0.267
11,GCCCTTCA,-0.0164
12,AGGTCGGA,-0.149
13,AGAACATG,-0.117
14,GACGTCCC,-0.051
15,CCAACGGG,-0.027
16,CGGTATCA,-0.0496
17,GATTTAGC,0.131
18,TCCAGTCA,0.138
19,AGGATGTG,-0.00019
20,ACGGGCCG,-0.24
21,CGGCTGCC,0.376
22,AGCGTAAT,0.0149
23,TAAACCAA,-0.0299
24,ATTTACTC,-0.0422
25,CTGCGTTA,-0.00686

row,Sequence,PBM E-score
1,AACCAAAT,0.192
2,GATTGCCA,-0.0717
3,GGAGACCC,-0.00231
4,CTTCGGCC,-0.325
5,ATAGACAT,-0.0591
6,GCATGACA,-0.0488
7,CGAACGGC,-0.327
8,ATTGAATA,0.083
9,ATTAGACG,0.295
10,GAGCAACC,0.183
11,GGCTGTGA,-0.199
12,AAAGTTGT,-0.00604
13,AACGAGGC,-0.289
14,AGTAGGGG,0.162
15,AGTCTTCA,-0.173
16,ATCCACAG,0.095
17,ATTATGAG,-0.109
18,ATGCTGGG,-0.0684
19,GAGATGCA,-0.0326
20,AGGCGAAT,0.164
21,GGTACGAA,0.0552
22,GCTCACAC,-0.138
23,ATCGTGTC,-0.0762
24,CAGAGAAA,-0.0752
25,AAGTCGGC,0.101

row,Sequence,PBM E-score
1,AATTTACG,0.0625
2,ACCAGTCG,-0.0765
3,AAACAATC,-0.118
4,ATTAATGA,0.206
5,ACGTGAGG,-0.188
6,ATCAGAGG,-0.0655
7,CGCTTGAA,-0.00196
8,CAATCCCA,-0.238
9,ATACATGG,-0.0143
10,ACAGGCGT,0.0735
11,ACTTATAT,0.0752
12,ATCTTTAA,0.126
13,AAACTTTC,-0.112
14,AAGGAGCC,0.236
15,AGGGGCGC,0.0975
16,CAAAGCAG,0.151
17,AAAGCCCC,-0.121
18,CAAAAGAA,0.00461
19,CTCTGTGC,-0.0991
20,CCATGCTC,-0.163
21,CTTGTCTC,0.0266
22,CAAGATTA,0.115
23,CGGTGTTC,0.138
24,CTTTGATA,-0.126
25,AGGAGGAG,-0.174

row,Sequence,PBM E-score
1,ATGTCAGG,-0.0106
2,CCCGAGGA,0.127
3,ATTGTTTC,0.0668
4,CCACTTCG,0.0958
5,CAACTGTA,0.0815
6,GCTTTCGA,-0.172
7,AGTACACA,-0.0105
8,TCTCGACA,0.00826
9,CACCTAAC,-0.0762
10,CTGGTTTA,-0.157
11,AGATTGTG,-0.183
12,ATTTGCTC,0.011
13,CAGCTACC,0.106
14,ATTGCTCA,-0.0603
15,CAATCCGG,0.138
16,AACTGCAC,-0.144
17,AACAGCTG,-0.139
18,GCTGAAGA,-0.0946
19,AGAGAAAG,-0.17
20,CGACGCAG,-0.168
21,TCCCGTAA,0.197
22,CAGCCCTG,-0.221
23,ACTTCCTC,0.243
24,CTGGATTC,0.361
25,CACTAAAG,0.00198

row,Sequence,PBM E-score
1,CTTTGATC,-0.117
2,TAAAGGTA,-0.0155
3,ATACCTCA,-0.0734
4,ATTACAAC,0.00639
5,CAGCGGAC,0.0152
6,AAGACAAA,0.0314
7,ATTTTCAA,0.191
8,ACATAGAA,0.159
9,CCAGATCG,0.117
10,CCCACTTA,0.0227
11,CGCAACAG,-0.0598
12,CGTTCCGC,-0.0069
13,GCTCCCAC,0.262
14,AGCTGCCA,0.385
15,CAAACTAC,0.0803
16,AAAACTGC,-0.038
17,CTACAGCC,-0.24
18,CTAGGAAC,0.149
19,ACAGGGCC,0.144
20,ACGGTCGA,-0.354
21,CGCATGCG,-0.0342
22,AACCGTTG,-0.191
23,CGTGGACA,-0.0344
24,GCACGGGC,-0.215
25,ATCTTTTA,0.11

row,Sequence,PBM E-score
1,CTGAATGA,0.0649
2,AAAGCCGT,-0.166
3,CTGCGCTC,-0.21
4,AGTGCCCG,-0.042
5,AACCCTAA,-0.0435
6,AGCCCCTG,-0.173
7,ATAGAAGG,0.0701
8,GCAAGTGC,-0.0557
9,GACGTCAA,-0.0162
10,ACGCGTCT,0.155
11,CACGGCAG,0.0173
12,AACGGCGC,-0.153
13,GTCTTTTA,0.101
14,CGTCCGAA,0.148
15,AGATTTTC,-0.0558
16,CGTCAGAC,-0.108
17,ATAGGTCC,-0.0274
18,ATGATGTG,0.175
19,AACGTAAA,0.122
20,GTGAACGA,0.0611
21,GCTTTTAC,0.141
22,CCATCGGA,-0.0523
23,CTCGTGAA,-0.0358
24,GCGGTTAA,-0.0577
25,GACCTAGC,-0.152

row,Sequence,PBM E-score
1,CACGAGAA,-0.0173
2,CGATCGAG,-0.26
3,GCATAACA,-0.104
4,ATTGATGC,0.137
5,ACGGTTTA,-0.0632
6,ACTTATCT,0.199
7,CCGGCACA,-0.108
8,ATATAAAA,0.263
9,AGAGGCCG,-0.0292
10,AGGCCAAC,-0.192
11,GTTGTTTA,0.0582
12,CGAGACAC,-0.141
13,CAGACCGG,-0.192
14,CTGAATCA,0.147
15,GCATGGAC,-0.119
16,AGCGTGTG,-0.0337
17,CAACGACG,-0.109
18,ATAAACGA,0.246
19,CATGCCCA,-0.155
20,ACGAAAGG,-0.0301
21,CCCTAATC,0.027
22,GCGGCCGC,-0.0199
